In paper PMC3698097:
Substitutions are numbered along the chain they refer to. No constants are given. Whether binding was seen depends on the method and setting. Binding seen in cells or lysates may run through a third protein. Some binding calls cover weakened binding; strength is not graded here. Sequences can lack the tags named with a protein.

T1: Apm1-GST (full-length Apm1 fused to GST) (Schizosaccharomyces pombe) (UniProt Q9HFE5)
T1 sequence: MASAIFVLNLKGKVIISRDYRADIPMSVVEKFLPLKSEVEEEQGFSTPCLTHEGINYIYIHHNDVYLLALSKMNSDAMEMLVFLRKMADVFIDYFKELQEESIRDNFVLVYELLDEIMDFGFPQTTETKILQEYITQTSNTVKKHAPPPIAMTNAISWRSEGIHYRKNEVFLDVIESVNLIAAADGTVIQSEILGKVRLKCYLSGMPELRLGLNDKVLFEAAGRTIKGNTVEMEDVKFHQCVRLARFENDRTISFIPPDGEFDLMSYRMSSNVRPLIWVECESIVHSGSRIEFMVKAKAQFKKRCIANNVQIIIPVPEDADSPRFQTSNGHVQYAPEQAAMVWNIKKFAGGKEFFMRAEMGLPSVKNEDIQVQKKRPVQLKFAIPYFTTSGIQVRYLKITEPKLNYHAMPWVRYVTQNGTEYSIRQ

T2: Sip1ΔN-GST (C-terminal region of Sip1 lacking the N-terminal 1414 amino acids, fused to GST) (Schizosaccharomyces pombe) (UniProt O42998)
T2 sequence: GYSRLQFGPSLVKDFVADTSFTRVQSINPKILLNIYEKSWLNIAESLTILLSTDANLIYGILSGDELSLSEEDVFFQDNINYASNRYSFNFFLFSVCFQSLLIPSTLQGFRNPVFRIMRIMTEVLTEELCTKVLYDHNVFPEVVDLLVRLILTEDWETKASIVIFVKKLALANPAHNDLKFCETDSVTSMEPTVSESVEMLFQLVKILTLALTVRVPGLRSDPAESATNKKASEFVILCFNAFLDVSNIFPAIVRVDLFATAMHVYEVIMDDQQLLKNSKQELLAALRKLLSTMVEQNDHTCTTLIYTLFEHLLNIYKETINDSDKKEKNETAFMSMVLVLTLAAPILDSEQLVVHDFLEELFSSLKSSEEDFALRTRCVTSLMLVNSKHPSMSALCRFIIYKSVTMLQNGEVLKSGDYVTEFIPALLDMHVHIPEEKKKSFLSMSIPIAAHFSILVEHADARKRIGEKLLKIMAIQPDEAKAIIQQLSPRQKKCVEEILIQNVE

B1: GFP-Rho2 (GFP-fused Rho2) (protein, UniProt Q10133 1-200)
chain: MLQSQPIRRKLVVVGDGACGKTSLLSVFTLGYFPTEYVPTVFENYVSDCRVDGKSVQLALWDTAGQEEYERLRPMSYAKAHIILVGFAIDSPDSLENVSTKWIEEINTLCPNVPFILVGMKADLRSDPVAIEEMRRRNQNFVKSQQAELVAQRIGARKYMECSSLTGDGVDDVFEAATRAALTVRDSENDKSSTKCCIIS
B2: GFP-Rho3 (wild-type Rho3 fused to GFP) (protein, UniProt O13928 1-205)
chain: MSSCFGSKKKPIYRKIVILGDGAAGKTSLLNVFTKGYFPQVYEPTIFENYIHDIFVDGNSIELSLWDTAGQEEYDQLRSLSYSDTHVIMICFAVDSRDSLENVITKWLPEVSSNCPGVKLVLVALKCDLRGADEEQVDHSKIIDYEEGLAAAKKINAVRYLECSAKLNRGVNEAFTEAARVALAAQPRGTKDGADESHGTGCIIA
B3: GFP-Rho3G22V (GTP-locked variant of Rho3 fused to GFP) (protein, UniProt O13928 1-205)
chain: B2 chain with G22V
B4: GFP-Rho3E48V (effector domain mutant of Rho3 fused to GFP) (protein, UniProt O13928 1-205)
chain: B2 chain with E48V
B5: GFP-Rho3T27N (GDP-locked variant of Rho3 fused to GFP) (protein, UniProt O13928 1-205)
chain: B2 chain with T27N
B6: Apl4 fused to GFP (subunit of the AP-1 complex) (protein, UniProt Q9UU81 1-836)
chain: MSSLKSFIKAVRASKTTAEEHTTILKESAQIRKNIRQGSNDMRMRRKNVAKLLYLFLLGEPTHFGQIECLKLLSSSRFMDKRLGYLAAMLLLDENQEVLTLLTNSLQNDLKSRDKFIVGLALSAFGNVAGPELARDLSNDIAELCSNHHNYISKKAVLCALRVIQKEPDLESLYIEKTDELLHSKSHGVLMAALAFAISACKINPSLISRFESQADDLIYRIRQLSTSTYSSEHNIGNISDPFLQVKILQFLSILGQNNPKIYDKMSDLLAQVCTNTDSSRNAGNAILYQAVRTILDLNSDSSLRVLGVNILAKFLGNRDNNTRYVALNMLKLVVNSEENAVQRHRSTILACLNDVDSSIQSRALELSTFLVNEANVRFMVRELLSFLDNVSDELRGSTAQYITEVTNAFAPNKRWHFDTLLRVFKSAGNFVSESTLSTFLRLIASAPELHEYAVVKLYAALKEDVSQEALTLSAFWVIGEYGQMLLSPTMNFDDDQTLPHSVSESDIVDIIEEVFNSVEASRYIIVQYGLFALTKLSARLGSSSTASRIDKIIYSYKRNKNTEVQQRSVEFHLILNDSKLSKTILEPTPAPLPPPRTTPYQNAEQKLKANKHVEKRVQESNELLDLIGLTTPSVAEPLETPVDEMTQSPQSSLSRAPSTSKKSHFEDILGLFASPAPSAQPVDSLASSFASLDFNASASQPSNNLSLLSSIPSTSKSYPPIVVFDKHDVTLTLVPSKEESTKTAVIEAKFKNKNPMTRVEKIHLEVAVPKSQKLKIQPLRTTSMEPGGETSQTLRVHGPSGSQVKLRLRISVVRQGGSNTLDQVDFGKLPSDLLQ
B7: Apl2 fused to GFP (subunit of the AP-1 complex) (protein, UniProt O43079 1-683)
chain: MVPKLFQSSRFKAFKKSETSELQKGLVSQYAYERIDAVKRTIAAMTVGKDVSSLFPDVLKNLATRDITLKKLVYLYLINYAKTHPDLCILAVNTFVKDSEEYNPTLRALAIRTMGCIRVNKIIGYLADPLRKALKDEHPYVRKAAAVCVVKMYDLDREYCASNGFIEQLQALVSDPNPVVVANAVRSLAEIHDQDPEKGYFNVVYTMTDRLMVALSECNEWGRITILNSLARFRTSDIKEAEYVCERVVPQFQHANSGVVLSAVKVIMVHIPLFSSDFTDFLYKKMAPPLLTLLSTDSEIQYVALRNINLILQKRPSIFDVKTRVFFCKYNDPLYIKMEKLKIITMLACDENINETISELRAYVSEVELEFVKQTIKCLGDVALKVPSVINDCISIFLEIYELNISYMVQEVTVVMETVLRKYPQKIDLLLPYLSRVIEELGDPRARSSMAWILGEFSHVIPTSSKLLSEMISTMADEDLQIQLALLTAVVKLSLMNGKGNDEELVQKVLNYAINQSSNQDLRDRAFAYQRLLTPENVRKAQKIVCCEKPSVSYNNNLPEALLDALLCEITTLASVYHKLPESFIGQGKFGADAIQRRAVEELNIEEANVHEAIEKGANVENLLDLDFTDPGATSASDSPITSAQPQSGSNSAMDLFMAFEAPSTNNAEPVKARSATDDLLGL
B8: Apm1 fused to GFP (subunit of the AP-1 complex) (protein, UniProt Q9HFE5 1-426)
chain: T1 sequence
B9: Aps1 fused to GFP (subunit of the AP-1 complex) (protein, UniProt Q9P7N2 1-162)
chain: MSIKFFLLVSRQGKVRLAKWFNTLSIKERAKIIRDVSSLVITRKPKMCNFVEYKGEKIVYRRYASLFFVCGIEQDDNELIILEVIHKFVECLDKYFGNVCELDLIFNFEKAYYVMEELLLAGELQESSKTNVLSAVLAGDAESEADAQQDSLQKLVGSVKKR

Biological target: T1, Apm1-GST (full-length Apm1 fused to GST) (Schizosaccharomyces pombe)
Assay: pull-down; purified GST fusion protein (or GST) from S. pombe, nmt1 promoter, incubated with lysates of S. pombe cells expressing GFP-fused proteins; precipitated with glutathione beads, washed extensively, SDS-PAGE, immunoblot with anti-GFP or anti-GST antibodies; only the target purified

Row | binding | Binder
1 | no binding | B1

Biological target: GST-Sip1 (full-length Sip1 fused to GST) (Schizosaccharomyces pombe) (UniProt O42998)
Assay: as above

Row | binding | Binder
2 | binds | B2
3 | binds | B3
4 | binds | B4
5 | binds | B5
6 | no binding | B1

Biological target: T2, Sip1ΔN-GST (C-terminal region of Sip1 lacking the N-terminal 1414 amino acids, fused to GST) (Schizosaccharomyces pombe)
Assay: as above

Row | binding | Binder
7 | binds | B6
8 | binds | B7
9 | binds | B2
10 | binds | B3
11 | binds | B4
12 | binds | B5
13 | binds | B8
14 | no binding | B1
15 | binds | B9

Biological target: T1, Apm1-GST (full-length Apm1 fused to GST) (Schizosaccharomyces pombe)
Assay: pull-down; Apm1-GST expressed in wild-type cells (and in sip1-i4 cells with Sip1ΔN expressed from the nmt1 promoter, where binding was significantly rescued); lysates of cells expressing GFP-Rho3 incubated with purified full-length Apm1-GST; glutathione beads, SDS-PAGE; only the target purified

Row | binding | Binder
16 | binds | B2
